{
  "source": "PubChem BioAssay AID686979",
  "about": "(National Center for Advancing Translational Sciences (NCATS), 2013)",
  "note": "Several values for one entry are separate records, joined by “and”; a condition that tells them apart may be missing. Equal entries are not always repeated. Out of some 420,000 compounds screened, about 50,000 (12%) were called active. The inconclusive results got no clear call from the source; some entries with a clear call stand among them for comparison. Calls follow the shape of the dose curve; as a rule, active = well fitted inhibition curve with a large enough effect; inconclusive = small, poorly fitted or top-dose-only effect; inactive = flat fitted curve, though single readings scatter. Where the call is inconclusive, the potency comes from a doubtful curve fit.",
  "data": [
    {"test": "qHTS for Inhibitors of human tyrosyl-DNA phosphodiesterase 1 (TDP1): qHTS in cells in presence of CPT; also: nearly all actives have a fitted effect of over 55% in size; also: potency is read from the fitted curve at half-maximal effect; tags tell the direction and shape of the fitted curve; as to activity change, negative = growth inhibition: % is scaled to controls: 0 for no effect and ±100 for the full control effect", "conditions": "chicken DT40 Tdp1-/-;hTDP1 cells + 20 nM CPT, ATP luminescence, 48 h; activity change, negative = growth inhibition: at 46.2 µM (top of the series)", "procedure,_shortened": "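Cell growth measured by CellTiter-Glo luminescence after a minimum 48 h, 37 C compound exposure with 20 nM CPT in Tdp1-knockout DT40 cells stably expressing hTDP1, seeded 400/well; qHTS titration format.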", "values": [
      {"compound": "COc1ccccc1N1CCN(C(=O)c2ccc(CS(=O)c3ccccc3C)o2)CC1", "note": "(stereo not drawn)", "Potency": "active: 11.6 µM"},
      {"compound": "CN1/C(=C\\C=N\\NC(=O)c2ccc(O)cc2)C(C)(C)c2ccccc21", "Potency": "active: 20.6 µM"},
      {"compound": "CCCCN1C(=S)NC[C@@H]1Cc1cccc2ccccc12", "Potency": "inconclusive: 29.1 µM [inhibitor, single point]"},
      {"compound": "COc1ccc(Cc2nc3ccc(C(=O)NC4CCOC4)cc3o2)cc1", "note": "(stereo not drawn)", "Potency": "inactive"},
      {"compound": "CCS(=O)(=O)N1CCc2cc(C(=O)NCc3ccc(OC)cc3)ccc21", "Potency": "inconclusive: 29.1 µM [inhibitor, single point]"},
      {"compound": "CC(OC(=O)C1=COCCO1)C(=O)c1ccc(C(C)(C)C)cc1", "note": "(stereo not drawn)", "Potency": "inconclusive: 29.1 µM [inhibitor, single point]"},
      {"compound": "Cc1cccc(NC(=O)C(Cc2ccccc2)n2cccc2)c1", "note": "(stereo not drawn)", "Potency": "inconclusive: 29.1 µM [inhibitor, single point]"},
      {"compound": "CCC(=O)N1c2ccccc2-c2nnc(SC)nc2OC1c1ccc(N(C)C)cc1", "note": "(stereo not drawn)", "Potency": "inconclusive: 20.6 µM [inhibitor, single point]"},
      {"compound": "Cc1nc2c(-c3ccc(F)cc3)cnn2c(N)c1-c1ccccc1", "Potency": "inconclusive: 29.1 µM [inhibitor, single point]"},
      {"compound": "Cc1nn(C)cc1C(C(=O)NC1CCCCC1)N(C(=O)Cc1cccs1)c1ccc(C(C)C)cc1", "note": "(stereo not drawn)", "Potency": "inconclusive: 29.1 µM [inhibitor, single point]"},
      {"compound": "COc1ccc(CNC(=O)CSc2nnnn2-c2ccc(O)cc2)cc1", "Potency": "inconclusive: 1.46 µM [inhibitor, partial curve, poor fit]"},
      {"compound": "CC1=C(CC(=O)c2ccc(Cl)cc2)C(=O)c2ccccc2C1=O", "Potency": "active: 23.1 µM"},
      {"compound": "COc1ccc(C(C)=O)cc1CSc1nc2ccccc2c(=O)n1-c1cccc(C)c1", "Potency": "active: 18.4 µM"},
      {"compound": "C=CCN1CN(CCc2ccccc2)CNC1=S", "Potency": "inactive"},
      {"compound": "O=C(c1ccc(Br)cc1)N1CCCC(c2nc(-c3cccs3)no2)C1", "note": "(stereo not drawn)", "Potency": "inconclusive: 20.6 µM [inhibitor, single point]"},
      {"compound": "COc1cc(C(=O)N[C@H](C(=O)NC2CCCCCC2)C(C)C)cc(OC)c1OC", "Potency": "inactive"},
      {"compound": "Cn1c(N)c(C(=O)COC(=O)c2ccco2)c(=O)n(C)c1=O", "Potency": "inactive"},
      {"compound": "Cn1c(=O)c2c(nc(CN3CCN(C(=O)c4ccco4)CC3)n2Cc2ccccc2)n(C)c1=O", "Potency": "inactive"},
      {"compound": "Cc1cc(N=Cc2c(O)ccc3ccccc23)no1", "Potency": "inconclusive: 29.1 µM [inhibitor, single point]"},
      {"compound": "NC(=S)NN=C1C=CCCC1", "Potency": "active: 2.91 µM"},
      {"compound": "Cc1ncc(CCl)c2c1OC(C)(C)OC2", "Potency": "inconclusive: 29.1 µM [inhibitor, single point]"},
      {"compound": "Cn1c(N)c(C(=O)COC(=O)c2ccc(Cl)c(S(=O)(=O)N3CCCCC3)c2)c(=O)n(C)c1=O", "Potency": "inactive"},
      {"compound": "CC1CC(C)CN(C(C)C(=O)Nc2cc(S(=O)(=O)N3CCCCC3)ccc2Cl)C1", "note": "(stereo not drawn)", "Potency": "inconclusive: 29.1 µM [inhibitor, single point]"},
      {"compound": "CCOc1ccc(S(=O)(=O)N2CCN(S(=O)(=O)c3ccc(OCC)cc3)C(C)C2)cc1", "note": "(stereo not drawn)", "Potency": "inconclusive: 16.4 µM [inhibitor, single point]"},
      {"compound": "Cn1c(=O)[nH]c(=O)c2c1nc(SCCN1CCCCC1)n2CCCc1ccccc1", "Potency": "inconclusive: 25.9 µM [inhibitor, single point]"},
      {"compound": "COc1cccc(NC(=O)CSc2nc3ccccc3cc2Cc2ccccc2)c1", "Potency": "inconclusive: 20.6 µM [inhibitor, single point]"},
      {"compound": "Cc1ccc(CN2C(=O)C(Cc3ccccc3)Nc3ncnc(N4CCOCC4)c32)cc1", "note": "(stereo not drawn)", "Potency": "inconclusive: 20.6 µM [inhibitor, single point]"},
      {"compound": "COCCn1c(-c2ccc(Br)cc2)nc2oc3cc(OC)ccc3c(=O)c2c1=O", "Potency": "inconclusive: 25.9 µM [inhibitor, single point]"},
      {"compound": "O=S1(=O)CCOC[C@H](CC2CCCCC2)N1Cc1cccc(F)c1", "Potency": "inconclusive: 31.6 µM [inhibitor, partial curve, poor fit] and inconclusive: 29.1 µM [inhibitor, single point]"},
      {"compound": "COC(=O)c1ccccc1S(=O)(=O)N1CCC(C(=O)OC(C)C(=O)N(C)Cc2ccccc2)CC1", "note": "(stereo not drawn)", "Potency": "inactive"},
      {"compound": "Cc1ccc(C)c(N2CCN(C(=O)C3CCN(c4nc(-c5ccc(C(C)C)cc5)no4)CC3)CC2)c1", "Potency": "inconclusive: 29.1 µM [inhibitor, single point]"},
      {"compound": "Cn1c(SCC(=O)N2c3ccccc3CCc3ccccc32)nnc1-c1cc2ccccc2cc1O", "Potency": "active: 16.4 µM"},
      {"compound": "Cn1nnnc1SCCNS(=O)(=O)c1ccccc1", "Potency": "inactive"},
      {"compound": "O=C(O)c1ccc(CN2C(=O)CSC2=S)cc1", "Potency": "active: 18.4 µM"},
      {"compound": "Cc1ccc2c(c1)N(C(=O)CCC(=O)NCc1cccc(Br)c1)CC(C)O2", "note": "(stereo not drawn)", "Potency": "inconclusive: 29.1 µM [inhibitor, single point]"},
      {"compound": "FC(F)(F)c1ccc(N2CCN(c3ncnc4c3nnn4Cc3ccccc3Cl)CC2)cc1", "Potency": "inconclusive: 23.1 µM [inhibitor, single point]"},
      {"compound": "Cc1cc(CCNC=O)c(C)c2c1sc1ccccc12", "Potency": "inactive"},
      {"compound": "O=S(=O)(Cc1cc(Sc2ccccc2)nc(-c2ccccc2)n1)c1ccccc1", "Potency": "active: 23.1 µM"},
      {"compound": "COCCNC(=O)c1cnn2c(C(F)F)cc(-c3ccccc3)nc12", "Potency": "inconclusive: 29.1 µM [inhibitor, single point]"},
      {"compound": "O=C(CN1CCN(S(=O)(=O)c2cc(Cl)ccc2Cl)CC1)Nc1cccc(F)c1", "Potency": "inconclusive: 25.9 µM [inhibitor, single point]"},
      {"compound": "O=C(c1cncc(Br)c1)N1CCN(c2ccc([N+](=O)[O-])cc2)CC1", "activity change, negative = growth inhibition": "inconclusive: -30.7% [inhibitor]"},
      {"compound": "COc1cc(/C=C2\\SC(=O)N(c3ccc(O)cc3)C2=O)cc(OC)c1OC", "Potency": "inconclusive: 25.9 µM [inhibitor, single point]"},
      {"compound": "COc1ccccc1NS(=O)(=O)c1cc(NC(=O)c2cc(F)c(F)c(F)c2F)ccc1N1CCOCC1", "Potency": "inconclusive: 29.1 µM [inhibitor, single point]"},
      {"compound": "COc1ccc(CNC(=O)c2sc(=O)n(Cc3ccc(C)cc3)c2C)cc1", "Potency": "inconclusive: 16.4 µM [inhibitor, single point]"},
      {"compound": "COCCN(C(=O)COC(=O)c1cc2ccccc2cc1OC)c1c(N)n(Cc2ccccc2)c(=O)[nH]c1=O", "Potency": "inconclusive: 25.9 µM [inhibitor, single point]"},
      {"compound": "Cc1cccc(CNc2nc(-c3ccccc3CN(C)C)nc3ccccc23)c1", "Potency": "active: 13 µM"},
      {"compound": "CN(C)S(=O)(=O)N(CC(=O)N(Cc1ccccc1)Cc1ccccc1)c1ccccc1", "Potency": "inconclusive: 35.5 µM [inhibitor, single point]"},
      {"compound": "COc1ccc(OC)c(N2C(N)=NC(N)=NC23CCCC3)c1", "Potency": "inactive"},
      {"compound": "CC(C)Oc1c(Br)cc(Br)cc1/C=N/NC(N)=S", "Potency": "active: 16.4 µM"},
      {"compound": "CC(C)[C@@H]1Cc2[nH]c(=S)[nH]c(=O)c2[C@H](CCc2ccccc2)O1", "Potency": "inconclusive: 29.1 µM [inhibitor, single point]"},
      {"compound": "CC(=O)c1ccc(-c2ccc(C(=O)NC3CCCCCC3)o2)cc1", "Potency": "inactive"},
      {"compound": "CCC1CCCCN1CCCCOc1cccc(Cl)c1", "note": "(stereo not drawn)", "Potency": "inconclusive: 29.1 µM [inhibitor, single point]"},
      {"compound": "O=C(CSc1ccccn1)Nc1nc2c(ccc3ccccc32)s1", "Potency": "inconclusive: 29.1 µM [inhibitor, single point]"},
      {"compound": "CCOC(=O)C1CCCN(C(=O)c2ccc3c(c2)N(Cc2ccccc2)C(=O)c2ccccc2S3(=O)=O)C1", "note": "(stereo not drawn)", "Potency": "inconclusive: 13 µM [inhibitor, single point]"},
      {"compound": "COc1ccc(S(=O)(=O)n2cnc3cc(C)c(C)cc32)cc1", "Potency": "inconclusive: 8.91 µM [inhibitor, partial curve]"},
      {"compound": "CC1=C(C(=O)Nc2ccc(C)cc2C)C(c2ccccc2[N+](=O)[O-])n2ncc(C(=O)Nc3ccccc3)c2N1", "note": "(stereo not drawn)", "Potency": "inconclusive: 29.1 µM [inhibitor, single point]"},
      {"compound": "Cc1ccc(C(=O)Nc2sc3c(c2C(=O)O)CCCC3)o1", "Potency": "inconclusive: 25.9 µM [inhibitor, single point]"},
      {"compound": "O=C(CSc1nc2ccccc2c(=O)n1NC(=O)c1ccccc1)c1ccc(Cl)cc1", "Potency": "inconclusive: 0.58 µM [inhibitor, full curve, poor fit]"},
      {"compound": "Cc1cccnc1NCC(O)COc1ccccc1", "note": "(stereo not drawn)", "Potency": "inactive"},
      {"compound": "Fc1ccc(-c2nc(Nc3ccc(F)c(Cl)c3)nc3c2COc2ccccc2-3)cc1", "Potency": "inconclusive: 29.1 µM [inhibitor, single point]"},
      {"compound": "CC(C(=O)Nc1cccc(C#N)c1)n1nc(-c2ccccc2)c2c(c1=O)CCCC2", "note": "(stereo not drawn)", "Potency": "inconclusive: 25.9 µM [inhibitor, single point]"},
      {"compound": "O=C(C1=C[C@@H](C2CC2)C[C@@H](OCCCCO)O1)N1CCN(Cc2ccc3c(c2)OCO3)CC1", "Potency": "inactive"},
      {"compound": "Cc1ccc(S(=O)(=O)Nc2ccc(O)c3cccnc23)cc1", "Potency": "active: 2.91 µM"},
      {"compound": "COc1ccc(CC(N)c2csc(NC(=O)CCc3ccccc3)n2)cc1", "note": "(stereo not drawn)", "Potency": "active: 23.1 µM"},
      {"compound": "CC(C)N(C(=O)Cn1cc(S(=O)(=O)Cc2ccc(Cl)cc2)c2ccccc21)C(C)C", "Potency": "inconclusive: 23.1 µM [inhibitor, single point]"},
      {"compound": "CCCCOc1ccc(-c2nnc(-c3ccncc3)o2)cc1", "Potency": "inconclusive: 18.4 µM [inhibitor, single point]"},
      {"compound": "CC(C)(C)c1ccc(C(=O)NCCCNC(=O)c2ccccn2)cc1", "Potency": "inconclusive: 2.06 µM [inhibitor, full curve, poor fit]"},
      {"compound": "COc1cc(Nc2nc(SCC(=O)c3ccc(Cl)c(Cl)c3)nc3ccccc23)cc(OC)c1", "Potency": "active: 1.3 µM"}
    ]}
  ]
}
